Structures are written as SMILES. Where “and” joins values, the source holds several entries; their conditions need not be identical. Identical values can stand only once. In all, about 2,900 compounds were measured (“IRF Lucia reporter activity, fold change vs agonist alone”: median about 0.9, highest 2% from about 2.8 on). The list shows a part of the results.

Data on 28 compounds can be found in the supplement of paper PMC10037445.

In assay [1] the test system is RAW-Dual. The experiment in a line: IRF Lucia reporter activity, fold change vs agonist alone; higher = enhanced IRF activity. The note with it: agonist: MPLA (TLR4) […]. Summed up:
(§1)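 RAW-Dual macrophages (50,000 cells/well in DMEM, 384-well plates) received 50 nL of library stock by pin tool, then a PRR agonist 1 h later, and were kept at 37 °C, 5% CO2. After 20 hours, supernatant was read for IRF by QuantiLuc luminescence and for NF-κB by QuantiBlue absorbance at 620 nm. Reporter activity is fold change over agonist-alone wells. Cytotoxic wells had IncuCyte confluency below 70% of agonist controls in both mask sets.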

Assay [2] concerns RAW-Dual. The experiment in a line: IRF Lucia reporter activity, fold change vs agonist alone; cytotoxicity flag (confluency mask): not cytotoxic; higher = enhanced IRF activity. The method, boiled down: as §1
Assay [3] has as its system RAW-Dual. The assay can be described thus: IRF Lucia reporter activity, fold change vs agonist alone; cytotoxicity flag (confluency mask): cytotoxic (confluency <70% of control); higher = enhanced IRF activity. Summed up: as §1
[4] abbreviates: library stock concentration (final ~1000-fold dilution): 10 mM, cytotoxicity flag (confluency mask): not cytotoxic.
Setting [5] is: agonist: 3'3'-cGAMP (STING) 10 ug/mL.

For the compound `CCCCc1oc2ccc(NS(C)(=O)=O)cc2c1C(=O)c1ccc(OCCCN(CCCC)CCCC)cc1.Cl`, the “IRF Lucia reporter activity” value with RAW-Dual [1] (setting [4]) worked out at 1.12.

In the case of `CCCCc1oc2ccc(NS(C)(=O)=O)cc2c1C(=O)c1ccc(OCCCN(CCCC)CCCC)cc1.Cl` (library stock concentration (final ~1000-fold dilution): 10 mM), the “IRF Lucia reporter activity” value in the assay with RAW-Dual [2] (setting [5]) stood at 1.06; in the assay on RAW-Dual [2] (agonist: LPS (TLR4) 0.1 ug/mL), 0.105.

For the compound `CNC(=O)c1cc(Oc2ccc(NC(=O)Nc3ccc(Cl)c(C(F)(F)F)c3)c(F)c2)ccn1` (library stock concentration (final ~1000-fold dilution): 10 mM), the “IRF Lucia reporter activity” value came to 0.331 in the assay with RAW-Dual [2] (setting [5]) and 0.588 in the assay on RAW-Dual [2] (agonist: LPS (TLR4) 0.1 ug/mL).

Regarding `CNC(=O)c1cc(Oc2ccc(NC(=O)Nc3ccc(Cl)c(C(F)(F)F)c3)c(F)c2)ccn1`, in the assay on RAW-Dual [1] (setting [4]), the “IRF Lucia reporter activity” value was determined as 0.63.

In the case of `NC(=O)Nc1cc(-c2cccc(F)c2)sc1C(=O)NC1CCCNC1` (centres undefined), in the assay with RAW-Dual [1] (setting [4]), the “IRF Lucia reporter activity” value came out at 0.178.

As for `NC(=O)Nc1cc(-c2cccc(F)c2)sc1C(=O)NC1CCCNC1` (centres undefined) (library stock concentration (final ~1000-fold dilution): 10 mM), the figures for the “IRF Lucia reporter activity” value in the assay with RAW-Dual [2] (setting [5]) and in the assay on RAW-Dual [2] (agonist: LPS (TLR4) 0.1 ug/mL) were 0.0411 and 0.135, respectively.

Take `Cl.OC(CNCC(O)C1CCc2cc(F)ccc2O1)C1CCc2cc(F)ccc2O1` (centres undefined): the “IRF Lucia reporter activity” value in the assay with RAW-Dual [1] (library stock concentration (final ~1000-fold dilution): 10 mM, cytotoxicity flag (confluency mask): cytotoxic (confluency <70% of control)) is 1.27.

`Cl.OC(CNCC(O)C1CCc2cc(F)ccc2O1)C1CCc2cc(F)ccc2O1` (centres undefined) (library stock concentration (final ~1000-fold dilution): 10 mM): the “IRF Lucia reporter activity” value in the assay on RAW-Dual [3] (setting [5]) is 0.599; in the assay on RAW-Dual [3] (agonist: LPS (TLR4) 0.1 ug/mL) it was 1.15.

As for `CN(C)CCOC(c1ccccc1)c1ccccc1.Cl`, the “IRF Lucia reporter activity” value with RAW-Dual [1] (setting [4]) came to 0.719.

Regarding `CN(C)CCOC(c1ccccc1)c1ccccc1.Cl` (library stock concentration (final ~1000-fold dilution): 10 mM), the “IRF Lucia reporter activity” value with RAW-Dual [2] (setting [5]) came out at 0.97; in the assay on RAW-Dual [2] (agonist: LPS (TLR4) 0.1 ug/mL), 0.943.

As to `CC(C)=CCc1c(O)ccc(C(=O)/C=C/c2ccc(O)cc2)c1O` (library stock concentration (final ~1000-fold dilution): 10 mM), the “IRF Lucia reporter activity” value in the assay with RAW-Dual [3] (setting [5]) was determined as 0.0218; with RAW-Dual [3] (agonist: LPS (TLR4) 0.1 ug/mL), 0.114.

Regarding `NC(CSCCB(O)O)C(=O)O` (centres undefined) (library stock concentration (final ~1000-fold dilution): 10 mM), the “IRF Lucia reporter activity” value with RAW-Dual [2] (setting [5]) stood at 1.1; in the assay with RAW-Dual [2] (agonist: LPS (TLR4) 0.1 ug/mL) it was 1.28.

In the case of `CN1CC(=O)N2C(Cc3c([nH]c4ccccc34)C2c2ccc3c(c2)OCO3)C1=O` (centres undefined) (library stock concentration (final ~1000-fold dilution): 10 mM), the “IRF Lucia reporter activity” value in the assay on RAW-Dual [2] (setting [5]) was determined as 0.888; with RAW-Dual [2] (agonist: LPS (TLR4) 0.1 ug/mL), 0.579.

In the case of `CN1CC(=O)N2C(Cc3c([nH]c4ccccc34)C2c2ccc3c(c2)OCO3)C1=O` (centres undefined), in the assay with RAW-Dual [1] (setting [4]), the “IRF Lucia reporter activity” value came out at 0.613.

As to `CN1C2CCCC1CC(NC(=O)c1nn(C)c3ccccc13)C2.Cl` (centres undefined) (library stock concentration (final ~1000-fold dilution): 10 mM water), the “IRF Lucia reporter activity” value in the assay on RAW-Dual [2] (setting [5]) and in the assay on RAW-Dual [2] (agonist: LPS (TLR4) 0.1 ug/mL) was 0.867 throughout.

As for `CN1C2CCCC1CC(NC(=O)c1nn(C)c3ccccc13)C2.Cl` (centres undefined), the “IRF Lucia reporter activity” value with RAW-Dual [1] (library stock concentration (final ~1000-fold dilution): 10 mM water, cytotoxicity flag (confluency mask): not cytotoxic) is 1.2.

For `CS(=O)(=O)O.Cc1c(O)cccc1C(=O)NC(CSc1ccccc1)C(O)CN1CC2CCCCC2CC1C(=O)NC(C)(C)C` (centres undefined), the “IRF Lucia reporter activity” value in the assay with RAW-Dual [1] (setting [4]) stood at 2.24.

On to `CS(=O)(=O)O.Cc1c(O)cccc1C(=O)NC(CSc1ccccc1)C(O)CN1CC2CCCCC2CC1C(=O)NC(C)(C)C` (centres undefined) (library stock concentration (final ~1000-fold dilution): 10 mM), for which the “IRF Lucia reporter activity” value in the assay on RAW-Dual [2] (setting [5]) amounted to 0.918; in the assay on RAW-Dual [2] (agonist: LPS (TLR4) 0.1 ug/mL) it was 3.62.

Take `COc1ccc2c(c1)c(CC(=O)O)c(C)n2C(=O)c1ccc(Cl)cc1` (library stock concentration (final ~1000-fold dilution): 10 mM): the “IRF Lucia reporter activity” value in the assay with RAW-Dual [2] (setting [5]) is 1.07 and 1.03; in the assay with RAW-Dual [2] (agonist: LPS (TLR4) 0.1 ug/mL) it was 1.28 and 0.991.

With `Nc1nc2ccc(OC(F)(F)F)cc2s1`, the “IRF Lucia reporter activity” value in the assay on RAW-Dual [1] (setting [4]) was 1.02.

Consider `Nc1nc2ccc(OC(F)(F)F)cc2s1` (library stock concentration (final ~1000-fold dilution): 10 mM), for which the “IRF Lucia reporter activity” value is 0.961 in the assay on RAW-Dual [2] (setting [5]) and 0.869 in the assay on RAW-Dual [2] (agonist: LPS (TLR4) 0.1 ug/mL).

Consider `CNC(=O)c1cc(Oc2ccc(NC(=O)Nc3cc(C(C)(C)C)nn3-c3ccc4ncccc4c3)c(F)c2)ccn1`, for which the “IRF Lucia reporter activity” value with RAW-Dual [1] (setting [4]) was 0.95.

Regarding `CNC(=O)c1cc(Oc2ccc(NC(=O)Nc3cc(C(C)(C)C)nn3-c3ccc4ncccc4c3)c(F)c2)ccn1` (library stock concentration (final ~1000-fold dilution): 10 mM), the entries for the “IRF Lucia reporter activity” value in the assay on RAW-Dual [2] (setting [5]) and in the assay with RAW-Dual [2] (agonist: LPS (TLR4) 0.1 ug/mL) were 1.05 and 0.0221, respectively.

Consider `COc1ccc(CCN(C)CCCC(C#N)(c2ccc(OC)c(OC)c2)C(C)C)cc1OC.Cl` (centres undefined) (library stock concentration (final ~1000-fold dilution): 10 mM), for which the “IRF Lucia reporter activity” value in the assay on RAW-Dual [2] (setting [5]) came to 0.616; in the assay with RAW-Dual [2] (agonist: LPS (TLR4) 0.1 ug/mL), 1.1.

Regarding `COc1ccc(CCN(C)CCCC(C#N)(c2ccc(OC)c(OC)c2)C(C)C)cc1OC.Cl` (centres undefined), in the assay on RAW-Dual [1] (setting [4]), the “IRF Lucia reporter activity” value stood at 1.11.

In the case of `N#Cc1cc2cc(CN3CCC(Nc4ncnc5sc(CC(F)(F)F)cc45)CC3)ccc2[nH]1` (library stock concentration (final ~1000-fold dilution): 10 mM), the “IRF Lucia reporter activity” value came out at 0.109 in the assay with RAW-Dual [2] (setting [5]) and 0.719 with RAW-Dual [2] (agonist: LPS (TLR4) 0.1 ug/mL).

Regarding `Cc1ccc(=O)n(-c2ccccc2)c1`, the “IRF Lucia reporter activity” value in the assay on RAW-Dual [1] (setting [4]) came out at 1.02.

Regarding `Cc1ccc(=O)n(-c2ccccc2)c1` (library stock concentration (final ~1000-fold dilution): 10 mM), the “IRF Lucia reporter activity” value in the assay with RAW-Dual [2] (setting [5]) was found to be 1; in the assay on RAW-Dual [2] (agonist: LPS (TLR4) 0.1 ug/mL), 0.939.
